Laboratory results from patent publication US20110166064A1 (published 2011).

Target: T1, Insulin-like Growth Factor I Receptor (IGF-1R)
T1 construct: also called IGFR; IGF receptor
Assay: competitive displacement, microtiter plate antibody capture assay with the IGF Type I receptor

- Kd: 3.1 nM
- relative to insulin: 3 fold, relative to insulin
B1: Arg^B31, Arg^B32, Gly^A21-insulin (ligand)
chain 1: not shown
chain 2: not shown
notes: also called insulin Glargine; Lantus
